Each structure is given as a SMILES string.

Assay [1] has as its system Colletotrichum orbiculare. Particulars: 250 ppm sprayed (2.5 ml/pot) before inoculation; assessed 6 to 10 days after inoculation.
Assay [2] has as its system Phytophthora infestans. In kind it is in vivo. The settings on record: Table 7, Test F.
Assay [3] relates to Magnaporthe grisea. It is filed as in vivo. The settings on record: Table 7, Test A.

For `COc1ccc(-c2c(-n3cc(Cl)cn3)cc(Br)c(=O)n2CC(F)F)c(Br)c1` [Compound 288], the “control value, Test H (anthracnose on cucumber)” value (“control value, Test H” below) in assay [1] is reported as “H (H shows the control value more than 50%)”. In addition, the “control value, Test F (late blight on tomato)” value (“control value, Test F” for short) in assay [2] was “L (L shows the control value of 50% or less)”. For the same molecule, the “control value, Test A (blast on rice)” value in assay [3] was “H (H shows the control value more than 50%)”.

Regarding `CCn1c(-c2c(F)cccc2F)c(-c2cc(Cl)sc2Cl)cc(Cl)c1=O` [Compound 297], the “control value, Test H” value in assay [1] is “L (L shows the control value of 50% or less)”. In addition, in assay [2], the “control value, Test F” value is given as “L (L shows the control value of 50% or less)”. In addition, the “control value, Test A (blast on rice)” value in assay [3] was “L (L shows the control value of 50% or less)”.

For `CCn1c(-c2ccc(F)cc2Br)c(-n2cc(C)cn2)cc(Br)c1=O` [Compound 332], in assay [3], the “control value, Test A (blast on rice)” value is given as “H (H shows the control value more than 50%)”.

In the case of `CCc1ccccc1-c1c(-n2cc(C)cn2)cc(Br)c(=O)n1CC` [Compound 321], the “control value, Test H” value in assay [1] is reported as “H (H shows the control value more than 50%)”. Also, in assay [2], the “control value, Test F” value is reported as “L (L shows the control value of 50% or less)”. Besides, in assay [3], the “control value, Test A (blast on rice)” value is recorded as “L (L shows the control value of 50% or less)”.

Source of the values: US11178870B2 (priority 2017, dated 2021).
